# Test results from the supplement of paper PMC8728848.
# Some of the results follow.
# Key:
# Assay in all cases: glycan array binding signal (z-score within array); higher = stronger binding
# Settings in all cases: glycan notation: IUPAC condensed, linker removed
# [1] = molecular target: GlcNAc(a1-4)Gal(b1-4)GlcNAc(b1-3)Gal(b1-4)GlcNAc
# Method in brief: (§1)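 Negative Z-scores can be read as non-binding. The Z-score is calculated within each array and then averaged across arrays of one protein sequence at different concentrations or buffers and across linkers. Arrays, 3228 in all, were curated from the Consortium for Functional Glycomics database and kept only where the protein sequence was available.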
# [2] = molecular target: GlcNAc(a1-4)Gal(b1-4)GlcNAc(b1-3)Gal(b1-4)GlcNAc(b1-3)Gal(b1-4)GlcNAc
# Method in brief: as §1
# [3] = molecular target: GlcNAc(a1-4)Gal(b1-4)GlcNAc(b1-3)Gal(b1-4)[Fuc(a1-3)]GlcNAc(b1-3)Gal(b1-4)[Fuc(a1-3)]GlcNAc
# Method in brief: as §1
# [4] = molecular target: GlcNAc(a1-6)Gal(b1-4)GlcNAc
# Method in brief: as §1
# [5] = molecular target: GlcNAc(b1-2)Gal(b1-3)GalNAc
# Method in brief: as §1
# [6] = molecular target: GlcNAc(b1-2)Man(a1-3)[GlcNAc(b1-2)Man(a1-6)]Man(b1-4)GlcNAc(b1-4)GlcNAc
# Method in brief: as §1
# [7] = molecular target: GlcNAc(b1-2)Man(a1-3)[GlcNAc(b1-2)Man(a1-6)]Man(b1-4)GlcNAc(b1-4)[Fuc(a1-6)]GlcNAc
# Method in brief: as §1
# [8] = molecular target: GlcNAc(b1-2)Man(a1-3)[GlcNAc(b1-4)][GlcNAc(b1-2)Man(a1-6)]Man(b1-4)GlcNAc(b1-4)GlcNAc
# Method in brief: as §1
# [9] = molecular target: GlcNAc(b1-2)Man(a1-3)[GlcNAc(b1-4)][GlcNAc(b1-2)Man(a1-6)]Man(b1-4)GlcNAc(b1-4)[Fuc(a1-6)]GlcNAc
# Method in brief: as §1
# [10] = molecular target: GlcNAc(b1-2)[GlcNAc(b1-4)]Man(a1-3)[GlcNAc(b1-2)Man(a1-6)]Man(b1-4)GlcNAc(b1-4)GlcNAc
# Method in brief: as §1
# [11] = molecular target: GlcNAc(b1-2)[GlcNAc(b1-4)]Man(a1-3)[GlcNAc(b1-4)][GlcNAc(b1-2)Man(a1-6)]Man(b1-4)GlcNAc(b1-4)GlcNAc
# Method in brief: as §1
# [12] = molecular target: GlcNAc(b1-2)[GlcNAc(b1-4)]Man(a1-3)[GlcNAc(b1-4)][GlcNAc(b1-2)[GlcNAc(b1-6)]Man(a1-6)]Man(b1-4)GlcNAc(b1-4)GlcNAc
# Method in brief: as §1
# [13] = molecular target: GlcNAc(b1-2)[GlcNAc(b1-4)]Man(a1-3)[GlcNAc(b1-4)][GlcNAc(b1-2)[GlcNAc(b1-6)]Man(a1-6)]Man(b1-4)GlcNAc(b1-4)[Fuc(a1-6)]GlcNAc
# Method in brief: as §1
# [14] = molecular target: GlcNAc(b1-2)[GlcNAc(b1-6)]Man(a1-6)[GlcNAc(b1-2)Man(a1-3)]Man(b1-4)GlcNAc(b1-4)GlcNAc
# Method in brief: as §1
# [15] = molecular target: GlcNAc(b1-2)[GlcNAc(b1-6)]Man(a1-6)[GlcNAc(b1-2)Man(a1-3)]Man(b1-4)GlcNAc(b1-4)[Fuc(a1-6)]GlcNAc
# Method in brief: as §1
# [16] = molecular target: GlcNAc(b1-2)[GlcNAc(b1-6)]Man(a1-6)[GlcNAc(b1-4)][GlcNAc(b1-2)Man(a1-3)]Man(b1-4)GlcNAc(b1-4)GlcNAc
# Method in brief: as §1
# [17] = molecular target: GlcNAc(b1-3)Fuc
# Method in brief: as §1
# [18] = molecular target: GlcNAc(b1-3)Gal
# Method in brief: as §1
# [19] = molecular target: GlcNAc(b1-3)Gal(b1-3)GalNAc
# Method in brief: as §1
# [20] = molecular target: GlcNAc(b1-3)Gal(b1-4)Glc
# Method in brief: as §1
# [21] = molecular target: GlcNAc(b1-3)Gal(b1-4)GlcNAc
# Method in brief: as §1
# [22] = molecular target: GlcNAc(b1-3)Gal(b1-4)GlcNAc(b1-2)Man(a1-3)[GlcNAc(b1-3)Gal(b1-4)GlcNAc(b1-2)Man(a1-6)]Man(b1-4)GlcNAc(b1-4)GlcNAc
# Method in brief: as §1
# [23] = molecular target: GlcNAc(b1-3)Gal(b1-4)GlcNAc(b1-2)Man(a1-3)[GlcNAc(b1-3)Gal(b1-4)GlcNAc(b1-2)Man(a1-6)]Man(b1-4)GlcNAc(b1-4)[Fuc(a1-6)]GlcNAc
# Method in brief: as §1
# [24] = molecular target: GlcNAc(b1-3)Gal(b1-4)GlcNAc(b1-2)[GlcNAc(b1-3)Gal(b1-4)GlcNAc(b1-6)]Man(a1-6)[GlcNAc(b1-3)Gal(b1-4)GlcNAc(b1-2)Man(a1-3)]Man(b1-4)GlcNAc(b1-4)GlcNAc
# Method in brief: as §1
# [25] = molecular target: GlcNAc(b1-3)Gal(b1-4)GlcNAc(b1-3)Gal(b1-4)GlcNAc
# Method in brief: as §1
# [26] = molecular target: GlcNAc(b1-3)Gal(b1-4)GlcNAc(b1-3)Gal(b1-4)GlcNAc(b1-2)Man(a1-3)[GlcNAc(b1-3)Gal(b1-4)GlcNAc(b1-3)Gal(b1-4)GlcNAc(b1-2)Man(a1-6)]Man(b1-4)GlcNAc(b1-4)GlcNAc
# Method in brief: as §1
# [27] = molecular target: GlcNAc(b1-3)Gal(b1-4)GlcNAc(b1-3)Gal(b1-4)GlcNAc(b1-2)Man(a1-3)[GlcNAc(b1-3)Gal(b1-4)GlcNAc(b1-3)Gal(b1-4)GlcNAc(b1-2)Man(a1-6)]Man(b1-4)GlcNAc(b1-4)[Fuc(a1-6)]GlcNAc
# Method in brief: as §1
# [28] = molecular target: GlcNAc(b1-3)Gal(b1-4)GlcNAc(b1-3)Gal(b1-4)GlcNAc(b1-2)[GlcNAc(b1-3)Gal(b1-4)GlcNAc(b1-3)Gal(b1-4)GlcNAc(b1-6)]Man(a1-6)[GlcNAc(b1-3)Gal(b1-4)GlcNAc(b1-3)Gal(b1-4)GlcNAc(b1-2)Man(a1-3)]Man(b1-4)GlcNAc(b1-4)[Fuc(a1-6)]GlcNAc
# Method in brief: as §1
# [29] = molecular target: GlcNAc(b1-3)Gal(b1-4)GlcNAc(b1-3)Gal(b1-4)GlcNAc(b1-3)Gal(b1-4)GlcNAc(b1-2)Man(a1-3)[GlcNAc(b1-3)Gal(b1-4)GlcNAc(b1-3)Gal(b1-4)GlcNAc(b1-3)Gal(b1-4)GlcNAc(b1-2)Man(a1-6)]Man(b1-4)GlcNAc(b1-4)GlcNAc
# Method in brief: as §1
# [30] = molecular target: GlcNAc(b1-3)Gal(b1-4)GlcNAc(b1-3)Gal(b1-4)GlcNAc(b1-3)Gal(b1-4)GlcNAc(b1-2)Man(a1-3)[GlcNAc(b1-3)Gal(b1-4)GlcNAc(b1-3)Gal(b1-4)GlcNAc(b1-3)Gal(b1-4)GlcNAc(b1-2)Man(a1-6)]Man(b1-4)GlcNAc(b1-4)[Fuc(a1-6)]GlcNAc
# Method in brief: as §1
# [31] = molecular target: GlcNAc(b1-3)Gal(b1-4)GlcNAc(b1-3)Gal(b1-4)GlcNAc(b1-3)Gal(b1-4)GlcNAc(b1-2)[GlcNAc(b1-3)Gal(b1-4)GlcNAc(b1-3)Gal(b1-4)GlcNAc(b1-3)Gal(b1-4)GlcNAc(b1-6)]Man(a1-6)[GlcNAc(b1-3)Gal(b1-4)GlcNAc(b1-3)Gal(b1-4)GlcNAc(b1-3)Gal(b1-4)GlcNAc(b1-2)Man(a1-3)]Man(b1-4)GlcNAc(b1-4)[Fuc(a1-6)]GlcNAc
# Method in brief: as §1
# [32] = molecular target: GlcNAc(b1-3)Gal(b1-4)GlcNAc(b1-3)Gal(b1-4)GlcNAc(b1-3)Gal(b1-4)GlcNAc(b1-3)Gal(b1-4)GlcNAc(b1-2)Man(a1-3)[GlcNAc(b1-3)Gal(b1-4)GlcNAc(b1-3)Gal(b1-4)GlcNAc(b1-3)Gal(b1-4)GlcNAc(b1-3)Gal(b1-4)GlcNAc(b1-2)Man(a1-6)]Man(b1-4)GlcNAc(b1-4)GlcNAc
# Method in brief: as §1
# [33] = molecular target: GlcNAc(b1-3)Gal(b1-4)GlcNAc(b1-3)Gal(b1-4)GlcNAc(b1-3)Gal(b1-4)GlcNAc(b1-3)Gal(b1-4)GlcNAc(b1-2)Man(a1-3)[GlcNAc(b1-3)Gal(b1-4)GlcNAc(b1-3)Gal(b1-4)GlcNAc(b1-3)Gal(b1-4)GlcNAc(b1-3)Gal(b1-4)GlcNAc(b1-2)Man(a1-6)]Man(b1-4)GlcNAc(b1-4)[Fuc(a1-6)]GlcNAc
# Method in brief: as §1
# [34] = molecular target: GlcNAc(b1-3)Gal(b1-4)GlcNAc(b1-3)Gal(b1-4)GlcNAc(b1-3)Gal(b1-4)GlcNAc(b1-3)Gal(b1-4)GlcNAc(b1-2)[GlcNAc(b1-3)Gal(b1-4)GlcNAc(b1-3)Gal(b1-4)GlcNAc(b1-3)Gal(b1-4)GlcNAc(b1-3)Gal(b1-4)GlcNAc(b1-6)]Man(a1-6)[GlcNAc(b1-3)Gal(b1-4)GlcNAc(b1-3)Gal(b1-4)GlcNAc(b1-3)Gal(b1-4)GlcNAc(b1-3)Gal(b1-4)GlcNAc(b1-2)Man(a1-3)]Man(b1-4)GlcNAc(b1-4)[Fuc(a1-6)]GlcNAc
# Method in brief: as §1
# [35] = molecular target: GlcNAc(b1-3)Gal(b1-4)GlcNAc(b1-3)Gal(b1-4)GlcNAc(b1-3)GalNAc
# Method in brief: as §1
# [36] = molecular target: GlcNAc(b1-3)Gal(b1-4)GlcNAc(b1-3)GalNAc
# Method in brief: as §1
# [37] = molecular target: GlcNAc(b1-3)Gal(b1-4)GlcNAc(b1-3)[GlcNAc(b1-3)Gal(b1-4)GlcNAc(b1-3)]GalNAc
# Method in brief: as §1
# [38] = molecular target: GlcNAc(b1-3)Gal(b1-4)GlcNAc(b1-6)[Gal(b1-3)]GalNAc
# Method in brief: as §1
# [39] = molecular target: GlcNAc(b1-3)Gal(b1-4)GlcNAc(b1-6)[GlcNAc(b1-3)Gal(b1-3)]GalNAc
# Method in brief: as §1
# [40] = molecular target: GlcNAc(b1-3)Gal(b1-4)GlcNAc(b1-6)[GlcNAc(b1-3)]Gal(b1-4)GlcNAc
# Method in brief: as §1
# [41] = molecular target: GlcNAc(b1-3)GalNAc
# Method in brief: as §1
# [42] = molecular target: GlcNAc(b1-3)Man
# Method in brief: as §1
# [43] = molecular target: GlcNAc(b1-3)[GlcNAc(b1-4)][GlcNAc(b1-6)]GlcNAc
# Method in brief: as §1
# [44] = molecular target: GlcNAc(b1-3)[GlcNAc(b1-6)]Gal(b1-4)GlcNAc
# Method in brief: as §1
# [45] = molecular target: GlcNAc(b1-3)[GlcNAc(b1-6)]GalNAc
# Method in brief: as §1
binder,measurement,setting,value
"HPA (Helix pomatia), Q2F1K8 (protein) MQAFYSGLLLLCVVAFAAAQRVQSGKIDCGNDAGWAKVPSDDPGRDNTRELAKNITFASPYCRPPVVLLSITQLDVEQSQNLRVIARLYSVSPTGFKASCYTWHNTKVYSMSISWISIENY",glycan array binding signal (z-score),[1],1.34
same,glycan array binding signal (z-score),[2],1.89
same,glycan array binding signal (z-score),[3],1.6
same,glycan array binding signal (z-score),[4],0.592
same,glycan array binding signal (z-score),[5],0.071
same,glycan array binding signal (z-score),[6],-0.24
same,glycan array binding signal (z-score),[7],0.066
same,glycan array binding signal (z-score),[8],-0.403
same,glycan array binding signal (z-score),[9],-0.214
same,glycan array binding signal (z-score),[10],-0.232
same,glycan array binding signal (z-score),[11],-0.249
same,glycan array binding signal (z-score),[12],-0.326
same,glycan array binding signal (z-score),[13],-0.295
same,glycan array binding signal (z-score),[14],-0.266
same,glycan array binding signal (z-score),[15],0.167
same,glycan array binding signal (z-score),[16],-0.301
same,glycan array binding signal (z-score),[17],-0.157
same,glycan array binding signal (z-score),[18],-0.298
same,glycan array binding signal (z-score),[19],0.4
same,glycan array binding signal (z-score),[20],-0.151
same,glycan array binding signal (z-score),[21],-0.297
same,glycan array binding signal (z-score),[22],-0.103
same,glycan array binding signal (z-score),[23],0
same,glycan array binding signal (z-score),[24],-0.009
same,glycan array binding signal (z-score),[25],-0.292
same,glycan array binding signal (z-score),[26],0.308
same,glycan array binding signal (z-score),[27],-0.019
same,glycan array binding signal (z-score),[28],0.324
same,glycan array binding signal (z-score),[29],-0.189
same,glycan array binding signal (z-score),[30],-0.112
same,glycan array binding signal (z-score),[31],0.115
same,glycan array binding signal (z-score),[32],0.074
same,glycan array binding signal (z-score),[33],-0.002
same,glycan array binding signal (z-score),[34],1.74
same,glycan array binding signal (z-score),[35],-0.344
same,glycan array binding signal (z-score),[36],-0.34
same,glycan array binding signal (z-score),[37],-0.328
same,glycan array binding signal (z-score),[38],-0.305
same,glycan array binding signal (z-score),[39],-0.383
same,glycan array binding signal (z-score),[40],-0.301
same,glycan array binding signal (z-score),[41],0.296
same,glycan array binding signal (z-score),[42],-0.275
same,glycan array binding signal (z-score),[43],-0.213
same,glycan array binding signal (z-score),[44],-0.307
same,glycan array binding signal (z-score),[45],-0.304
